Paper PMC10726135
The other results are listed elsewhere or left out. At the low end of the ranking the order means little. The protein was read in a cell extract, so binding may be indirect.

molecular target: T1, HNF4alpha8 (COS-7 nuclear extract) (UniProt P41235-5); experiment: protein-binding microarray; details: COS-7 nuclear extract on double-stranded Agilent 4x180k PBM; binding buffer, salt, pH and temperature not given; high values mean tight binding; double strand, one strand shown; sequences stand for … in …GCCTAGGGAGATTAGAGTATCGGTCGA
T1 sequence: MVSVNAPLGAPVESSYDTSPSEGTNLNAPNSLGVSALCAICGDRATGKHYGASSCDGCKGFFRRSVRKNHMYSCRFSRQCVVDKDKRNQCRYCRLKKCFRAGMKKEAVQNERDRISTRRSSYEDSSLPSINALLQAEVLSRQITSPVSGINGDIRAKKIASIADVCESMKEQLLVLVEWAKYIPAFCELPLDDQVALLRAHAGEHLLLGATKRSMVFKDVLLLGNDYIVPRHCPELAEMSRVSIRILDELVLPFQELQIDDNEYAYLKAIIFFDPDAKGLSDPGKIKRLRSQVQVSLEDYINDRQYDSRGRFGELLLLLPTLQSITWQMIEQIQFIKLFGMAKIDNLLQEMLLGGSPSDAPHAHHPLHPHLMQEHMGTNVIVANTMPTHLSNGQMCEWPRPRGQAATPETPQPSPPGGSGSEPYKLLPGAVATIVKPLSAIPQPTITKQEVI

Sequence	binding signal (log2 normalized intensity)
CAGCTGGGCTTGTTCAAATAACAGCAACAT	-1.32
TCCAAAATACGACCTTTGGACAGGGTGACG	7.56
GCATTATCAGGCAAGGGTGGTGACAAAGAC	-1.17
CAACTCAGAGACAGGGATTGGTTCTCAACA	-1.29
GTTGTGGAATGTGCTTGGACCTGCTCTGTT	2.33
TGGTTTCTGTTTGAGGGGAAGAGAGTATGG	-0.41
GTTCCGTGTTCCAGAGCCTCCAAAGTCCGC	2.8
CTGGGGCCTCCTGGCTGGGCAGGCTCCCTC	-1.26
TATCTTCTTTCAGTGTTGACCTTTGAACAT	9.23
CAATCCGCATCTTTTATAAGGGGCAGCAAA	0.937
CACAGCTAAGAGCCGCAGAGCTAATGTTCA	-1.29
TGACAGTGTGTACATAACAATGCAAGATAA	0.118
GAGAAATCTAGGCTGATAAGACACATTCCA	-0.889
CCACTCTCATGGTCAATATTTTCTTTGTGC	1.06
AAGGGAGAAATTGCGCTAACCAGATGGTAG	-1.22
CAGAAAGTGATGGGCTGGACTAAGAGTAGC	-1.27
CATTAGACAGAAACCAAGCTGTCCGACTGC	-1.35
ACCCTTTGAGTCCTTCATGGCTACCCTTCA	0.993
CCATCTCGTCCCGTCAATCTGCAGCCGCCG	-1.33
CTCTCCAAGCCAGAAAGATGTTTGCCCCAA	2.94

Sequence	binding signal (log2 normalized intensity)
TATTTGCTCACCAGTGACCAATAATGTAAT	0.199
AATCCATTGTCAATACCCTGTTATTAGTCC	1.71
CTCCCACCTTCGAGCTTCACCTTTGTCCTC	5.83
GGGGCTGCCGGGAAAGGCATACGTGCTTAA	-1.4
TCAGGACTCTAACTGGCTTTAAGAGGAATG	-1.32
CCCTTGGCCCCGCTGTCCTGATCCCTGAGG	1.69
ATTTCCAAGACCTCTTTGCGGATAGATATG	-0.569
TACTCTAGTACTAGGCAGCATAGGGCCACT	-1.26
TTATCAGGTCTTTCTTTCAGAACAGAGCCC	0.823
GACTCATTATCCCCCGCAACTATTTATGAG	2.92
GGTTGGCGCCAATACCTGCCGCGCGGGGCG	-1.39
CTAGCCGCTCCTCCCACGTCGCTGCCGCAG	-1.47
GATATTCAGACCTCTTTGAGGCCTTCGTTG	-1.48
AAAAAGCTTTTGTCATGACCTTCGCTCTTG	6.44
GTCACCAAAGCAAGCAGATGATATGTGATG	-0.0564
GGGCAGGTGGAGGTGGGATACTGGGAGGGA	-1.32
TTGGTTGGAGAAAGCAGCCAACCAGAGGCT	-1.28
TTCAAAGGTTATCTGCTGGCAGAATTCCTT	-0.0419
TGTTGATAAAGTGATTAGTGCAAGAATCCA	-1.17
TGGAAAAACCACACACTCCATAACTTTGGG	-1.3
